# From PubChem BioAssay (NCATS)
# This list was built around the results that the source calls inconclusive (neither active nor inactive); the mix of calls is not that of the screen. For some of these results: Potencies of inconclusive entries are left out as doubtful fits. Active and inactive are the calls of the source. The call rests on the fitted dose curve; in most records, active means well fitted curve in the direction sought with a large enough effect; inconclusive means small, poorly fitted or top-dose-only effect, or another doubt; inactive means no such curve, though single readings can be large; an effect the other way counts as inactive or inconclusive.
# Key:
# [1] = target: ATPase family AAA domain-containing protein 5 (Homo sapiens) (UniProt Q96QE3); test: qHTS screen for small molecules that inhibit ELG1-dependent DNA repair in human embryonic kidney (HEK293T) cells expressing luciferase-tagged ELG1: Hit Confirmation using MMS Stimulated ELG1 (AID 624249); further: nearly all actives have a fitted effect of over 60% in size; further: potency means the concentration at half of the fitted maximal effect
# UniProt Q96QE3, sequence (Q96QE3 whole entry, looked up, the tested form may be a part): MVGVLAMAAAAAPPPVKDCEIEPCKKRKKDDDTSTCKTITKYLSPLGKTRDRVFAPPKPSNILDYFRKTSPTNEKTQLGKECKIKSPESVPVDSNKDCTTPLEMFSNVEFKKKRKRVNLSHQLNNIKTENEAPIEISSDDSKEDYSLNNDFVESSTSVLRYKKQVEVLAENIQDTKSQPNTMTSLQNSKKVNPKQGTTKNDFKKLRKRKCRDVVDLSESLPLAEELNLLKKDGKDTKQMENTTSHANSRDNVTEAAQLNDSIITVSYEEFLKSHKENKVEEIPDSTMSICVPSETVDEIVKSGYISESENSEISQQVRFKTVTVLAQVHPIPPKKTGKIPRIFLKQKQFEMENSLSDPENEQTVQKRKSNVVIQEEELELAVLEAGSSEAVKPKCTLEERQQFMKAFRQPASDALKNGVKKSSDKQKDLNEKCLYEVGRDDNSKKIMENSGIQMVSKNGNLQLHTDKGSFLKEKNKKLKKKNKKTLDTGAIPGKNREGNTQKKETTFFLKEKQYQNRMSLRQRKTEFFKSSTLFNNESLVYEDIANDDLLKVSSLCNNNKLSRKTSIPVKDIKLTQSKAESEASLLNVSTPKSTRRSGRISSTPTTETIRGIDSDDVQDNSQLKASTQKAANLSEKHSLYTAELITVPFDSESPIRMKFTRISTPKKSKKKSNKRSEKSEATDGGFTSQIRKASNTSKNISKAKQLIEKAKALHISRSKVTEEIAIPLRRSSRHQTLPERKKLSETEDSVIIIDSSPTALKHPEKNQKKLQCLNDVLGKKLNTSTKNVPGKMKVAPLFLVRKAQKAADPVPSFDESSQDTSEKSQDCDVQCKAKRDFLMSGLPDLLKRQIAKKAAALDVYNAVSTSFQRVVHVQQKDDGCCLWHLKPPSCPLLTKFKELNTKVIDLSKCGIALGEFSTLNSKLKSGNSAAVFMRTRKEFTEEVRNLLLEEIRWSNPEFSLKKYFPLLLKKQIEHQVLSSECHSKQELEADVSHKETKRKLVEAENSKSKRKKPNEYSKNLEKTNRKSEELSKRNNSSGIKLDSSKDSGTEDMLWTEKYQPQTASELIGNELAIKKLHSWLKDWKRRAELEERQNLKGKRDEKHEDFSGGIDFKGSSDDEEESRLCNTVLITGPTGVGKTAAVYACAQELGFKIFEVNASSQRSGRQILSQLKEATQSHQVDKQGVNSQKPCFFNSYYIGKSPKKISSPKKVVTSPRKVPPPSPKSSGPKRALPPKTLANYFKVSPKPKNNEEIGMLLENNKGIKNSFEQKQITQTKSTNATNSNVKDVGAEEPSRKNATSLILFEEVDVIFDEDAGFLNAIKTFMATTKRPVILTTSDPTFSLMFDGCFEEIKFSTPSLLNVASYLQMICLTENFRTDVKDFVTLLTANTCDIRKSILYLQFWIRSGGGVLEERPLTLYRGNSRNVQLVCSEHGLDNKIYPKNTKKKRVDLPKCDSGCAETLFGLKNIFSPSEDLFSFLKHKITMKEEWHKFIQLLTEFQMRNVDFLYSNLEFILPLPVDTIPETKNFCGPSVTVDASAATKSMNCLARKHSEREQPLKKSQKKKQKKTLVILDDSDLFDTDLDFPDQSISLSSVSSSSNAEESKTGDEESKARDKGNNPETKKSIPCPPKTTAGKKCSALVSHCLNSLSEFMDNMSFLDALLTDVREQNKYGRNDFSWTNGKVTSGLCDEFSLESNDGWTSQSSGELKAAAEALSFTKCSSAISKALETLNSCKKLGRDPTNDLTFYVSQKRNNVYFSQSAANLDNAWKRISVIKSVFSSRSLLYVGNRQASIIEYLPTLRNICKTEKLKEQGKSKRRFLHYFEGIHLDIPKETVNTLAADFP
# Summary of the method: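 HEK293T cells carrying ELG1-luciferase, compounds added about 5 h after plating together with MMS at 10 µM final. Luciferase activity read 16 h after compound addition; suppression of signal scored.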
# [2] = qHTS screen for small molecules that inhibit ELG1-dependent DNA repair: Hit Confirmation with 5FU Viability (AID 624250); further: potency means the concentration at half of the fitted maximal effect;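 further: viability measured 16 h after compound addition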
# Summary of the method: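 Using CellTiter-Glo, viability of ELG1-luciferase HEK293T cells was assessed 16 h after adding compounds with 5-fluorouridine at a final 10 µM.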
# [3] = target: ATPase family AAA domain-containing protein 5 (Homo sapiens) (UniProt Q96QE3); test: HTS assay for small molecules that inhibit ELG1-dependent DNA repair in human embryonic kidney (HEK293T) cells expressing luciferase-tagged ELG1: Hit Confirmation (AID 624248); further: nearly all actives have a fitted effect of over 55% in size; further: potency means the concentration at half of the fitted maximal effect
# Summary of the method: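 Cells (2,000/well) received 5-Fluorouridine plus pin-transferred compound or DMSO and were incubated 16 hr at 37 °C, 5% CO2. Luciferase activity was read by ONE-Glo luminescence after 30 min at room temperature; inhibitors suppress the signal.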
# [4] = qHTS screen for small molecules that inhibit ELG1-dependent DNA repair: Hit Confirmation with MMS Viability (AID 624251); further: potency means the concentration at half of the fitted maximal effect; nearly all actives have a fitted effect of over 60% in size
# Summary of the method: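 ELG1-luc HEK293T cells were plated, then about 5 h later received compounds by pin transfer plus MMS at 10 µM final. Viability was read by CellTiter-Glo luminescence after 16 h.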
# [5] = target: Luciferin 4-monooxygenase (Photinus pyralis) (UniProt P08659); test: qHTS screen for small molecules that inhibit ELG1-dependent DNA repair: Hit Confirmation in Biochemical Luciferin Assay (AID 624253); further: series mostly up to about 57 µM
# Summary of the method: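 Compounds are tested directly on isolated Photinus pyralis luciferase, without cells. Enzyme is added to substrate already containing compound, and light output is captured by CCD imaging.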
# Tags describe the fitted curve by direction and shape.
compound,measurement,setting,value
COc1cc(-c2cc(C(=O)Nc3cc(S(=O)(=O)N4CCOCC4)ccc3C)c3ccccc3n2)cc(OC)c1OC,Potency,[1],"inconclusive [inhibitor, partial curve]"
Cc1oc(-c2ccc(Cl)cc2)nc1CN1CCCC(C(=O)N2CCN(C(=O)c3ccco3)CC2)C1 (stereo not drawn),Potency,[1],active: 1.25 µM
same,Potency,[2],inactive
CCC(C)NC(=O)c1oc2ccc(S(=O)(=O)N3CCC4(CC3)OCCO4)cc2c1C (stereo not drawn),Potency,[1],"inconclusive [inhibitor, partial curve, poor fit]"
CS(=O)(=O)N1CCCC(c2nc(-c3ccc(S(=O)(=O)NCc4ccccc4)cc3)no2)C1 (stereo not drawn),Potency,[1],active: 1.99 µM
COc1cccc(N2CC(NS(=O)(=O)c3cccnc3)CC2=O)c1 (stereo not drawn),Potency,[3],inactive
same,Potency,[4],"inconclusive [rising, partial curve, poor fit]"
Cc1nn(-c2ccccc2)c(N2CCCC2)c1/C=N/n1cnc2scc(-c3ccccc3)c2c1=O,Potency,[1],"inconclusive [inhibitor, full curve]"
CCOc1cc(S(=O)(=O)NCc2ccncc2)ccc1Cl,Potency,[3],"inconclusive [inhibitor, full curve]"
same,Potency,[5],inactive
O=C(C1CCCC1)N1CCC(CC2CC(c3cccc(Br)c3)=NO2)(C(=O)NCC2CCCCC2)CC1 (stereo not drawn),Potency,[1],"inconclusive [inhibitor, partial curve]"
CCN(CC(=O)Nc1c(C(=O)OC)[nH]c2ccc(C)cc12)c1ccc2c(c1)OCO2,Potency,[1],"inconclusive [inhibitor, single point]"
same,Potency,[2],"inconclusive [rising, partial curve]"
O=C1COc2ccc(C(=O)COC(=O)/C=C/c3cccc(F)c3)cc2N1,Potency,[1],inactive
same,Potency,[2],inactive
c1ccc(CCc2nn3c(-c4ccncc4)nnc3s2)cc1,Potency,[1],"inconclusive [inhibitor, partial curve]"
COc1cc2nc(CN(CCC(C)C)Cc3nc4cc(OC)c(OC)cc4c(=O)[nH]3)[nH]c(=O)c2cc1OC,Potency,[1],"inconclusive [inhibitor, single point]"
same,Potency,[2],"inconclusive [rising, full curve]"
CS(=O)(=O)c1ccc2nc(NC(=O)C3CCCCC3)sc2c1,Potency,[1],inactive
CCC[N+]1(CC#CCC(c2ccccc2)c2ccccc2)CCCCC1,Potency,[3],"inconclusive [inhibitor, partial curve]"
same,Potency,[4],active: 2.81 µM
CN1/C(=C\C(=O)C[n+]2ccc3ccccc3c2)C(C)(C)c2ccccc21,Potency,[3],"inconclusive [inhibitor, partial curve]"
same,Potency,[4],active: 2.81 µM
O=C1CCC/C1=c1\s/c(=C\c2cccnc2)c(=O)n1-c1ccccc1,Potency,[1],"inconclusive [inhibitor, full curve]"
same,Potency,[2],inactive
CSc1ncnc2c1ncn2C1OC(CO)C(O)C1O (stereo not drawn),Potency,[1],active: 1.99 µM
same,Potency,[2],"inconclusive [cytotoxic, full curve]"
O=C1CC(N2CCN(c3ccccn3)CC2)C(=O)N1CC(c1ccccc1)c1ccccc1 (stereo not drawn),Potency,[1],"inconclusive [inhibitor, single point]"
same,Potency,[2],inactive
COc1ccccc1Nc1nc(N2CCOCC2)nc(N2CCOCC2)n1,Potency,[1],inactive
same,Potency,[2],"inconclusive [rising, full curve, poor fit]"
CN(C)c1ccnc2sc3c(=O)n(-c4ccccc4)cnc3c12,Potency,[1],"inconclusive [inhibitor, partial curve, poor fit]"
same,Potency,[2],inactive
CCCNC(=O)c1ccc(N2CCC3(CC2)CC(c2ccccc2)=NO3)c(NC(=O)c2cccc(OC)c2)c1,Potency,[1],"inconclusive [inhibitor, full curve]"
same,Potency,[2],"inconclusive [rising, full curve, poor fit]"
COc1ccc(CNC(=O)CCSc2nc(-c3ccc4c(c3)OCO4)cc(C(F)(F)F)n2)cc1,Potency,[1],inactive
same,Potency,[2],"inconclusive [rising, partial curve]"
Clc1ccc2nc(-c3ccccc3)nc(C(Cl)Cl)c2c1,Potency,[1],active: 2.23 µM
same,Potency,[2],inactive
O=C(COc1ccc2ccc(=O)oc2c1)N1CCN(C(=O)C2COc3ccccc3O2)CC1 (stereo not drawn),Potency,[1],inactive
same,Potency,[2],"inconclusive [rising, full curve]"
COc1ccc(-c2nnc3ccc(SCC(=O)Nc4nc5ccc(C)cc5s4)nn23)cc1OC,Potency,[1],inactive
same,Potency,[2],"inconclusive [rising, full curve]"
